Data reported in the supplement of paper PMC6089552.
Out of some 3,200 compounds screened, about 300 (9.4%) showed activity. The entries are a selection whose mix differs from that of the whole data set.

Tested on: A673/TR/shEF
Experiment: cell viability (LOESS-normalised, relative to median of negative controls) (log2 ratio); higher = more viable cells (less compound effect), active = hit call of the paper (over 3 MAD below the median)
Conditions: treatment time: 72 h
Outline: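 Doxycycline, present or absent from 24 h before compounds, was used to induce EWS-FLI1 shRNA knockdown in A673/TR/shEF Ewing sarcoma cells at 1,500 per well in 384-well plates. Cells then received library compounds at two or more concentrations, or DMSO controls, for three days. Viability was measured by CellTiter-Glo luminescence on an Envision reader, and per-plate LOESS correction, division by the negative-control median and log2 transformation followed.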

[1] = 0.25 µM, library screen: screen2, EWS-FLI1 expression: high (no doxycycline)
[2] = 0.25 µM, library screen: screen2, EWS-FLI1 expression: low (doxycycline-induced shRNA knockdown)
[3] = 2.5 µM, library screen: screen2, EWS-FLI1 expression: high (no doxycycline)
[4] = 2.5 µM, library screen: screen2, EWS-FLI1 expression: low (doxycycline-induced shRNA knockdown)
[5] = 0.25 µM, library screen: screen1, EWS-FLI1 expression: high (no doxycycline)
[6] = 0.25 µM, library screen: screen1, EWS-FLI1 expression: low (doxycycline-induced shRNA knockdown)
[7] = 2.5 µM, library screen: screen1, EWS-FLI1 expression: high (no doxycycline)
[8] = 2.5 µM, library screen: screen1, EWS-FLI1 expression: low (doxycycline-induced shRNA knockdown)
[9] = 0.103 µM, library screen: screen3, EWS-FLI1 expression: high (no doxycycline)
[10] = 0.103 µM, library screen: screen3, EWS-FLI1 expression: low (doxycycline-induced shRNA knockdown)
[11] = 0.308 µM, library screen: screen3, EWS-FLI1 expression: high (no doxycycline)
[12] = 0.308 µM, library screen: screen3, EWS-FLI1 expression: low (doxycycline-induced shRNA knockdown)
[13] = 0.926 µM, library screen: screen3, EWS-FLI1 expression: high (no doxycycline)
[14] = 0.926 µM, library screen: screen3, EWS-FLI1 expression: low (doxycycline-induced shRNA knockdown)
[15] = 2.8 µM, library screen: screen3, EWS-FLI1 expression: high (no doxycycline)
[16] = 2.8 µM, library screen: screen3, EWS-FLI1 expression: low (doxycycline-induced shRNA knockdown)
[17] = 8.3 µM, library screen: screen3, EWS-FLI1 expression: high (no doxycycline)
[18] = 8.3 µM, library screen: screen3, EWS-FLI1 expression: low (doxycycline-induced shRNA knockdown)
[19] = 25 µM, library screen: screen3, EWS-FLI1 expression: high (no doxycycline)
[20] = 25 µM, library screen: screen3, EWS-FLI1 expression: low (doxycycline-induced shRNA knockdown)
[21] = 0.025 µM, library screen: screen2, EWS-FLI1 expression: high (no doxycycline)
[22] = 0.025 µM, library screen: screen2, EWS-FLI1 expression: low (doxycycline-induced shRNA knockdown)
[23] = 25 µM, library screen: screen2, EWS-FLI1 expression: high (no doxycycline)
[24] = 25 µM, library screen: screen2, EWS-FLI1 expression: low (doxycycline-induced shRNA knockdown)

Measured: cell viability (log2)

C1COC(NC(C2CC2)C2CC2)=N1
inactive: [1] 0.233 | [2] 0.156 | [3] 0.202 | [4] 0.117

Cc1cc(C(C)(C)C)c(O)c(C(C)(C)C)c1
inactive: [5] 0.159 | [6] 0.0822 | [7] 0.153 | [8] 0.182

CN/C(=C\[N+](=O)[O-])NCCSCc1ccc(CN(C)C)o1
inactive: [9] 0.0502 | [10] 0.0103 | [5] 0.088 | [6] 0.0512 | [1] 0.152 | [2] 0.0357 | [11] 0.129 | [12] 0.0395 | [13] 0.0665 | [14] 0.0631 | [7] 0.0941 | [8] 0.00845 | [3] 0.147 | [4] 0.0931 | [15] 0.0761 | [16] 0.132 | [17] 0.0612 | [18] 0.0932 | [19] 0.104 | [20] 0.0542

O=C(O)c1cn(C2CC2)c2cc(N3CCNCC3)c(F)cc2c1=O
inactive: [5] 0.1 | [6] 0.159 | [7] 0.142 | [8] 0.0926

CCCn1c(=O)[nH]c(=O)c2[nH]cnc21
inactive: [1] 0.233 | [2] 0.106 | [3] 0.119 | [4] 0.055

COC(=O)Nc1nc2ccc(Sc3ccccc3)cc2[nH]1
inactive: [21] 0.076 | [22] 0.0311 | [9] 0.039 | [10] 0.0842 | [5] 0.0605 | [6] 0.108 | [1] 0.237 | [2] 0.0195 | [11] 0.0857 | [12] 0.103 | [13] 0.0228 | [14] 0.0229 | [7] 0.101 | [8] 0.0874 | [3] 0.103 | [4] 0.0543 | [16] -0.0556
active: [15] -0.667 | [17] -1.42 | [18] -0.611 | [23] -2.26 | [24] -0.937 | [19] -1.77 | [20] -0.629

OC[C@H]1O[C@@H](n2cnc3c(NC4CCCC4)ncnc32)[C@H](O)[C@@H]1O
inactive: [1] 0.202 | [2] 0.0466 | [3] 0.138 | [4] 0.0975

N#CC(=C(N)Sc1ccccc1N)C(C#N)=C(N)Sc1ccccc1N
active: [7] -0.31 | 25 µM, library screen: screen1, EWS-FLI1 expression: high (no doxycycline) -0.459

C[N+](C)(C)CC=O
inactive: [1] 0.236 | [2] 0.0935 | [3] 0.178 | [4] 0.118

CN1CC(=O)N2[C@H](c3ccc4c(c3)OCO4)c3[nH]c4ccccc4c3C[C@@H]2C1=O
inactive: [9] 0.0722 | [10] 0.0676 | [11] 0.0239 | [12] 0.00816 | [13] 0.00685 | [14] 0.0455 | [15] 0.00758 | [16] -0.0093 | [17] 0.0413 | [18] 0.0751 | [19] 0.000365 | [20] 0.0545

C1CCC(C(CC2CCCCN2)C2CCCCC2)CC1 (stereo unspecified)
inactive: [5] 0.0789 | [6] 0.179 | [7] 0.124 | [8] 0.155

CC(C)NCC(O)COc1ccc(CCOCC2CC2)cc1 (stereo unspecified)
inactive: [1] 0.217 | [2] 0.0914 | [3] 0.1 | [4] 0.147

CCc1nc(N)nc(N)c1-c1ccc(Cl)cc1
inactive: [21] 0.129 | [22] 0.0541 | [9] 0.0417 | [10] 0.0477 | [5] 0.0408 | [6] 0.123 | [1] 0.112 | [2] 0.0163 | [11] 0.0837 | [12] 0.135 | [13] 0.0823 | [14] 0.107 | [7] 0.0817 | [8] 0.0354 | [3] 0.122 | [4] 0.129 | [15] 0.0808 | [16] 0.046 | [17] 0.0995 | [18] 0.0615 | [23] 0.0523 | [24] -0.0463 | [19] 0.153 | [20] 0.146

CC(=O)[C@@]1(O)CC[C@H]2[C@@H]3C[C@H](C)C4=CC(=O)C=C[C@]4(C)[C@@]3(F)[C@@H](O)C[C@@]21C
inactive: [5] 0.043 | [6] 0.0192 | [7] 0.0466 | [8] -0.346

COc1ccc2c(c1)OC/C(=C/c1ccc(OC)c(OC)c1)C2=O
inactive: [5] -0.0118 | [6] 0.0273 | [7] 0.0915 | [8] 0.0859

COc1cc(C(=O)NCc2ccc(OCCN(C)C)cc2)cc(OC)c1OC
inactive: [5] 0.112 | [6] 0.0356 | [7] 0.157 | [8] 0.166

O=c1cc(CO)occ1O
inactive: [5] 0.0933 | [6] 0.0544 | [7] 0.132 | [8] -0.023

C[C@@H]1CC[C@H]2[C@](C)(CO)[C@@H](O)CC[C@]2(C)[C@@]12CC[C@@](CO)(CCO)O2
inactive: [5] 0.0457 | [6] -0.0603 | [7] 0.0942 | [8] 0.112

CC1(C)C=Cc2c(cc3occ(-c4ccc5c(c4)OCO5)c(=O)c3c2O)O1
active: [5] -0.098
inactive: [6] 0.0822 | [7] 0.0137 | [8] 0.0314

NC1CCN(c2cccc(Cl)n2)CC1
inactive: [1] 0.144 | [2] 0.116 | [3] 0.262 | [4] 0.074

NC(=NCCC[C@H](N)C(=O)O)NO
inactive: [1] 0.166 | [2] 0.0583 | [3] 0.144 | [4] -0.026

O=C(O)COCCN1CCN(C(c2ccccc2)c2ccc(Cl)cc2)CC1 (stereo unspecified)
inactive: [9] 0.0797 | [10] 0.0652 | [11] 0.0829 | [12] 0.0941 | [13] 0.0635 | [14] 0.0408 | [15] 0.0831 | [16] 0.0467 | [17] -0.0492 | [18] 0.0358 | [19] 0.0636 | [20] 0.0303

N[C@@H]1CONC1=O
inactive: [5] 0.0504 | [6] -0.00481 | [1] 0.235 | [2] 0.0868 | [7] 0.125 | [8] 0.106 | [3] 0.132 | [4] 0.0538

COc1ccc2cc([C@H](C)CO)ccc2c1
inactive: [5] 0.0374 | [6] 0.0691 | [7] 0.0774 | [8] 0.0469

O=C(O)C1CCCN(CCC=C(c2ccccc2)c2ccccc2)C1 (stereo unspecified)
inactive: [1] 0.192 | [2] 0.08 | [3] 0.157 | [4] -0.00322

CC(=O)O[C@]1(C(C)=O)CC[C@H]2[C@@H]3C=C(Cl)C4=CC(=O)[C@@H]5C[C@@H]5[C@]4(C)[C@H]3CC[C@@]21C
inactive: [5] 0.0464 | [6] 0.0361 | [1] 0.167 | [2] 0.093 | [7] 0.125 | [8] 0.152 | [3] 0.0713 | [4] 0.00196

Clc1ccc(Cn2c(CN3CCCC3)nc3ccccc32)cc1
inactive: [1] 0.236 | [2] 0.105 | [3] 0.0991 | [4] 0.124

COc1cc2nc(N(C)CCCNC(=O)C3CCCO3)nc(N)c2cc1OC (stereo unspecified)
inactive: [9] 0.0691 | [10] 0.0104 | [11] 0.0888 | [12] -0.0191 | [13] -0.0428 | [14] -0.00583 | [15] 0.0393 | [16] 0.0845 | [17] 0.1 | [18] 0.0506 | [19] 0.0282 | [20] 0.14

O=C(O)/C=C/c1ccc(O)c(O)c1
inactive: [5] 0.082 | [6] -0.0191 | [1] 0.181 | [2] 0.126 | [7] 0.109 | [8] 0.0871 | [3] 0.0522 | [4] 0.0284

CSc1nnc(-c2ccccc2)c(-c2ccccc2)n1
inactive: [5] 0.103 | [6] 0.00324 | [7] 0.0984 | [8] 0.0395

O=C(O)/C(=C/c1c(C(=O)O)[nH]c2cc(Cl)cc(Cl)c12)c1ccccc1
inactive: [1] 0.0854 | [2] 0.0716 | [3] 0.0828 | [4] -0.0111

O=C(O)Cc1nn(Cc2ccc(Br)cc2F)c(=O)c2ccccc12
inactive: [5] 0.105 | [6] 0.114 | [7] 0.175 | [8] 0.176

OCC1OC(n2cnc3c(NC4CCCCC4)ncnc32)C(O)C1O (stereo unspecified)
inactive: [1] 0.119 | [2] 0.0527 | [3] 0.124 | [4] 0.0769

N[C@@H](Cc1c[nH]c2ccc(O)cc12)C(=O)O
inactive: [1] 0.107 | [2] 0.0832 | [3] 0.155 | [4] 0.0628

NC(N)=Nc1ccc(Cl)cc1
inactive: [5] 0.0833 | [6] -0.0263 | [7] 0.0885 | [8] 0.0171

COc1ccc(OC)c(C2NC(=S)NC(C)=C2C(=O)Nc2ccccc2Cl)c1 (stereo unspecified)
inactive: [5] 0.0287 | [6] 0.0702 | [7] 0.112 | [8] 0.148

CNC(=O)CN(CCN(CCN(CC(=O)[O-])CC(=O)NC)CC(=O)[O-])CC(=O)[O-].O.[Gd+3]
inactive: [9] 0.106 | [10] -0.0293 | [11] 0.00861 | [12] 0.114 | [13] 0.0946 | [14] 0.0839 | [15] 0.127 | [16] 0.127 | [17] 0.0841 | [18] 0.116 | [19] 0.0924 | [20] 0.134
